Laboratory results published in the supplement of paper PMC11417369.
± gives the standard deviation of the averaged measurements. This is one part of the list.

tested on: PfAP2-I AP2 domain 3 (GST-tagged); assay: gcPBM binding intensity (ln(normalized median fluorescence intensity)); higher = stronger DNA binding
Method in brief: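 DNA-binding domains from P. falciparum, fused to GST and produced in E. coli, were put on an Agilent 4 × 180k double-stranded probe array for 1 h in 1× PBS holding 1% milk, 0.2 mg/ml BSA, 0.5% salmon testes DNA and 0.03% Triton X-100. Probes were primer-extended, 36 bp long and drawn from intergenic genomic regions, with negative controls included. After Alexa488 anti-GST antibody detection and a 488 nm scan, binding intensity was set as the highest Masliner-normalised natural-log median intensity across replicate spots of either probe orientation.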

Sequence	gcPBM binding intensity (ln)
ATATATATATATTTATGTACGCATTTATAGACGTAG [XGTACX_site6031]	9.18 ± 0.13
TGTTTTTAAAAATATACACACACAGATATTATATAT [CACACA_site8162]	7.76 ± 0.67
TTTTATATTTATTTTTGTACATAAATGATCTCAAAT [XGTACX_site7768]	7.79 ± 0.49
ACTTAAATAATACATACACACATGTACTTACAGAAA [CACACA_site8458]	8.05 ± 0.55
TATGATAACCATAATTGTACAGAATGAAACGTAAAT [XGTACX_site1653]	8.13 ± 0.74
AAGTTTTTTTTTATCACACACAAAAAAAAAAATATA [CACACA_site1362]	7.82 ± 0.4
AAAAAATGAAAAAACTGTACGCAATTTTGTTTTTAT [XGTACX_site2299]	7.77 ± 0.41
AAAAAAAAAAAAAAGTGTACCTTCAAAATAATATTG [XGTACX_site2844]	7.99 ± 0.61
ATAAATATAAAACACACACACATATTATATATATAT [CACACA_site3064]	9.12 ± 0.29
TCTTTCCTTATTAAAACACACAAATACATTATTTAA [CACACA_site2147]	7.84 ± 0.46
CCTTTTTCTACTTTCTCACACATATTAAGAATTATA [CACACA_site5621]	8.29 ± 0.51
CTATATATAACCCATGTGCACTTTTTATGTACAATA	10.24 ± 0.092
TGGGAAAAAATATATGCACACCCCCCAAAAAAAAAA [CACACA_site8696]	11.5 ± 0.52
AATTCTTTATTATATGCACACGTACATATAATATAT [CACACA_site8621]	9.27 ± 0.18
AAAAAATGTTATAAAAGTACATAATTTATCTACCAT [XGTACX_site3035]	7.46 ± 0.47
TTTTTATATAATTTAACACACATTTCATATAAAAAA [CACACA_site3103]	8.07 ± 0.42
ATGTGAAAATAAGACACACTCAAAAGGTTTATATTA [CACACA_site4595]	7.67 ± 0.43
ATATACTGTATGAAAGCACACATACTTATTACTAAC [CACACA_site9384]	8.19 ± 0.68
TAACTTTGGAGGAGCTGTACGATTATTTTGATCCTT [XGTACX_site2514]	7.64 ± 0.63
AAAAAATTTCAAATAACACACACTAATATAAATATG [CACACA_site6783]	7.74 ± 0.52
TTTAAAAAATAATATTGTACTATTCTCCCAATTTCT [XGTACX_site7079]	7.24 ± 0.51
ATACATTCTAATACGTGTACATATATATATATATAT [XGTACX_site1881]	9.41 ± 0.59
AATAATATTAACACACGTACAAAAGCAAACAACCAA [XGTACX_site7410]	8.5 ± 0.49

Sequence	gcPBM binding intensity (ln)
TTTATATTATTATATCTTATTAATTATTTATCATTT [TGCATGCA_negctrl_site73]	7.28 ± 0.58
ATAAAACAAAAACACACACACATACACAAAAAAAAA [CACACA_site3848]	8.31 ± 0.43
CATCTTAAATAAGAACGTACATTTTTTTTGATGAGA [XGTACX_site3462]	7.46 ± 0.44
AAGACAAAACAAAGAAGTACATATATATATATATAT [XGTACX_site4067]	9.45 ± 0.38
GGAGACTTTGTACAAACACACACATGAACACAATAT [CACACA_site8376]	8.14 ± 0.61
TCTTCACCACGTGGAAGTACATAAAAAGATACACAA [XGTACX_site4747]	8.26 ± 0.63
ATGTATATATTTATGTGTACTTAAATTTTTTTTTGT [XGTACX_site8179]	7.86 ± 0.16
TTTTAATATATAGAGTAACAAATTTGTCTATTAATA [CACACA_negctrl_site1495]	7.5 ± 0.58
TAATTTAAAAATGAACATATATATGTATGTAAATAT [TGCATGCA_negctrl_site135]	8.03 ± 0.61
TATACCACCCGATATACACACTTGTAGACATCTTTT [CACACA_site4268]	7.96 ± 0.47
TATGGGTTTATATAGGTGCAATATATGTATATATAA	11.2 ± 0.59
TATATAGTTTATATTTGTACATATAGACATTTATAA [XGTACX_site6414]	7.53 ± 0.45
ACAAAACTCTTTAATTGTACAAATATAATATAAAAA [XGTACX_site5690]	7.74 ± 0.63
AGCAATATTTATTAAAGTACGTAAAAAAAATTCTCA [XGTACX_site6550]	7.6 ± 0.48
AACCATTGGGAAAGGGTGCACATATATATATATATA	10.8 ± 0.11
ATATATATATAATATTGTACATAGTAGACATCACAC [XGTACX_site4649]	8.89 ± 0.11
TCTTATTATAAAAGGAGTACATCAATTAGATGTTCC [XGTACX_site8465]	7.41 ± 0.53
CAAAGCATAGTATGATGTACAAATGTTCCTATAATA [XGTACX_site8642]	7.48 ± 0.65
TTATGTTTATACACTACACACATTATTCATAAAAAA [CACACA_site4637]	8.11 ± 0.3
TATATATGTATAAGAGTGCATATGCATATATGTATA [GTGCAC_site9692]	9.85 ± 0.014
TAAAATATGGAAATCACACATTTATTAAAATATATA [CACACA_site4623]	7.2 ± 0.4
GATTATATATTAAAAAGTACTTTATAAATACTTCTA [XGTACX_site8992]	7.72 ± 0.47
CATATACATTGTATATGTACATATATATATATATAT [XGTACX_site3772]	9.21 ± 0.59

Sequence	gcPBM binding intensity (ln)
TGATGCAAAATATATACACACATATATATATATATA [CACACA_site3052]	9.26 ± 0.32
TAATATACTTAATACACACACGAATATTTATAAATA [CACACA_site6675]	7.82 ± 0.37
GATTCATCTAAACACCGTACATATTATATATATATA [XGTACX_site6030]	9.035 ± 0.078
AAACTCAACTTATATACACACAATCTTTTTTTTTTA [CACACA_site29]	7.57 ± 0.69
CCCCTCGAAATAATTTGTACGAATATATTGTCTGTA [XGTACX_site8308]	9.12 ± 0.28
AGTATATTAAAAAATACACACGTATTATATCTACAT [CACACA_site8844]	7.55 ± 0.55
GTTCATAAATTAAACACACACACACCGCTGGATACC [CACACA_site5779]	8.49 ± 0.34
TATTGTATATAATAAACACACAATATTAAAAATATA [CACACA_site1057]	7.4 ± 0.52
TATTTAAAAAACACATGTACGAGTATTATATATAAA [XGTACX_site6654]	7.73 ± 0.52
ACATGCAACCATTCGGGTACAGAAATAAATATATAC [XGTACX_site4174]	7.99 ± 0.62
CTTTTTCGCATGAAAAGTACATGAAATATATTACAT [XGTACX_site8971]	7.7 ± 0.31
AATAACTTTTTAAACACACACACATATAAATAAATA [CACACA_site6196]	7.96 ± 0.49
GGTTATAACGCACATGCACACGTAAATAAATATTAT [CACACA_site9277]	10.8 ± 0.84
TAAATTTTAATAAATACACACAAATTTTAATTCTAT [CACACA_site6039]	7.51 ± 0.44
ATATTAAAATACAGTGCATGTTAAAAATATATTATA [TGCATGCA_site977]	9.095 ± 0.035
TTATAACATCTTAAATGTACAAATATGTGCTTATTT [XGTACX_site7285]	7.91 ± 0.36
TAAAAAAAAAACATCTGTACCAATTTTTATGTATAA [XGTACX_site5196]	7.46 ± 0.57
AATAAAAGTTCACCTGTACACACATATATATATGTA [CACACA_site8500]	7.96 ± 0.57
ATGTATTTATATACTTGTACGTAAGATGTATTATAT [XGTACX_site908]	7.86 ± 0.53
ATTGGAAAATATGTTATATATATATATATATATATG [CACACA_negctrl_site116]	8.53 ± 0.42
TTAATTCGTACATACACACGCACATATATATATATA [CACACA_site1469]	9.39 ± 0.21
AATAATAATAGAAACACACACACATCTTTAATAATA [CACACA_site4805]	7.73 ± 0.57
ATATTTTTTTTCTACACACATACAAATATATATTAT [CACACA_site2359]	8.33 ± 0.51

Sequence	gcPBM binding intensity (ln)
AGGAATATCGAAAACTGTACTTGTATGTTTCATAAA [XGTACX_site6143]	7.6 ± 0.51
TATAAAAATAATATTACACACATGTAAAATGGGGGT [CACACA_site9071]	8.57 ± 0.11
AATTGTATGTATGCCTGTACATATGTCTATCTTAAG [XGTACX_site1927]	7.65 ± 0.41
TATTTTATATGAGGCACACAAATTTTAATTGTTATT [CACACA_site725]	7.67 ± 0.55
ATTTATTTATTTTTTTGTACTTATAATTTTTATTAT [XGTACX_site2656]	7.79 ± 0.35
TATATTTAAATTCTTTCAAATCATGTTGTAATTTTT [CACACA_negctrl_site1349]	7.42 ± 0.61
ATACACTTAATATTATGTACATATATAAAAAAAATA [XGTACX_site1500]	7.99 ± 0.13
TTTTCAGAAAAGAGAAACTTTATTTTTCACAACCGA [TGCATGCA_negctrl_site389]	7.47 ± 0.67
ATTTTTTATGAAAATAAACACACGATTTATTATATA [CACACA_site1312]	7.47 ± 0.49
TAAAAAATTATTAAACGTACGAGACTTTTTATCAGT [XGTACX_site2219]	7.62 ± 0.6
CATAAAAATGGATACACACACATAATATATTTATAT [CACACA_site7669]	7.74 ± 0.58
ACAATATATTCATATTGTACATAAAATAAGGCTAAC [XGTACX_site6728]	7.96 ± 0.63
AAATTTTAATTAGGAACACACATATATATATATATA [CACACA_site5673]	9.52 ± 0.54
TTATATATAGATCACACACACACACCGGTTTTAAAA [CACACA_site4220]	7.99 ± 0.6
TCTTTTTTAATATAATATATTTTTATTAAGTAAATC [TGCATGCA_negctrl_site408]	7.54 ± 0.39
TAAATTTATGGACACACACACATATATATATATATA [CACACA_site4620]	9.45 ± 0.35
TATTTATCTATATATTGTACTTATTAGTCTTAATGT [XGTACX_site4242]	7.74 ± 0.15
GGTTCTAAAAAGGGAAGTACATGGAAAAATATAAAT [XGTACX_site4639]	8 ± 0.68
ATCGTTATATAATGTTGTACTTGTTATATATATATA [XGTACX_site7582]	9.095 ± 0.049
GCATGCACGGAAAAAAGTACATATATAAATTTGGTT [XGTACX_site3393]	8.2 ± 0.52
